According to PMC12136788:
The list shows a part of the results.

T1: UNK ZnF1-3 (human, UniProt Q9C0B0 31-174)
T1 sequence: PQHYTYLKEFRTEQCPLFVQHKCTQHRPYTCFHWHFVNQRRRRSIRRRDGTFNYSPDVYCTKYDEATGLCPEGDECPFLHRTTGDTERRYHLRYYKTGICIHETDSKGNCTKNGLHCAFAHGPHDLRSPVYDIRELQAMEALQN

B1: 82834144_82834264_2777_CDS_ENSG00000038427_ENST00000343200|human|control|control (ssRNA)
RNA: GGGAGUUCUACAGUCCGACGAUCUUGAUGGAUACUGCUGUGCUCAGUGGUCUGUGCCCCCAAAUUUUCUAAUGUAUUUGUUUCUGUAAAGACAGGAGUAGAAUCUGUCAUUUCCCUUUCAGACUGUGUUGGUGUUGUCAAGGACAACAGAGGAUUGAGCAUCA
B2: 36390580_36390700_8219_3pUTR_ENSG00000092847_ENST00000373204|human|control|control (ssRNA)
RNA: GGGAGUUCUACAGUCCGACGAUCCAAAGAAACAAAAAACCCACAAACUGUCUACCAGUGAUCUGUCACCUUAAGAUCUGCUUCCUCCCCCGAACCUUUAAAUUGAGUUUCUUAGGGGGCUGUAUACUAGUUUCUCUUCUCUUUCAACAGAGGAUUGAGCAUCA
B3: chr4:95690885:95690886:+_ENSMUSG00000028572_ENSMUST00000156910|mus_mus|mus_mus_mus_hu_False|8_68 (ssRNA)
RNA: GGGAGUUCUACAGUCCGACGAUCUUUAGAAAAUGUUAAAUACCAUGCUAAAAUAUUUUCAAAGGCUAGUCUUAUUUUACCAGAAGUCACAGGCAAGCAGACACUACAAGAAUAUAUGAAAAUGAAACAACAGUGUAUAACUGUCAACAGAGGAUUGAGCAUCA
B4: chr1:25167287:25167288:+_ENSG00000169504_ENST00000374379|hu_mus|FALSE|FALSE (ssRNA)
RNA: GGGAGUUCUACAGUCCGACGAUCGCUGUAGGCGUUUGUCAGGUACCUCCAGAUGCCUGUCAUUCCUUUAGGAAUAUCAAAGUUGCGGUAUUUUUUGGCCACCACCUUGACAAUGUGGAGCUUGGGCAGCAGGUUACAGUCUGCCAACAGAGGAUUGAGCAUCA
B5: chr8:117868997:117868998:-_ENSG00000164754_ENST00000297338|hu_mus|FALSE|FALSE (ssRNA)
RNA: GGGAGUUCUACAGUCCGACGAUCGACCCCUGCCUCAGACAAGGCAGGGGGAUCGUCAAAGAUGCCACCAUCAUUAUUACUUAUAAGUUUGUCAUCUAAUAUACCGCCAUCAUUUCCUUCUCCAAAAUUGUCAUCUUUGUACUGCAACAGAGGAUUGAGCAUCA
B6: 36021594_36021714_1036_CDS_ENSMUSG00000022905_ENSMUST00000004054|mouse|control|control (ssRNA)
RNA: GGGAGUUCUACAGUCCGACGAUCCCUGCAGACUCCUGCAUCGAUGACUGCUUGGAUUUUAUCAUUGGGUCCAUCUGACAGGUAUGAGAGAGCCCAGCAAGCAUCAGCUAGUACAUCAGUGUCACUGACAAACAGUAACCAAGACAACAGAGGAUUGAGCAUCA
B7: chr2:169020305:169020306:-_ENSG00000198648_ENST00000355999|hu_mus|FALSE|FALSE (ssRNA)
RNA: GGGAGUUCUACAGUCCGACGAUCCUGACCGUUUCUGUGCAGAUAGUCUAAACCUUCCAAAACCUCCUUAAGAAUUGUUGCAAUUAUCGCCUCUUCUAGGACACCAUUUUUAUGUUCUCCUCGAUUAACGAUGUAUUUGAUGAUCAACAGAGGAUUGAGCAUCA
B8: 38065953_38066073_6562_3pUTR_ENSMUSG00000021427_ENSMUST00000021864|mouse|control|control (ssRNA)
RNA: GGGAGUUCUACAGUCCGACGAUCCUUCCUACCUUUUCCCUUCUGUACUGGGGACUGAGCCUAGCGCACCCACGCUAGUCACCCACACACACUUAGCACUUUUACUCUUCUUCCAAGAAAGAACUGUCCUUGCAUAGUUAGUGGCAACAGAGGAUUGAGCAUCA
B9: chr1:243289802:243289803:-_ENSG00000143702_ENST00000366542|hu_mus|motif|central (ssRNA)
RNA: GGGAGUUCUACAGUCCGACGAUCAAGGAAACGUCAUUCGUGUACUGUAACAUCCUCCUCUUCCCCAUCAGGGUUGAACCGGUUGAAAUGGAUACUGAAAUCAGCCUCAGAUUCAGCAUUCUCAAACUCAGUGGAGGCUGCUGCCAACAGAGGAUUGAGCAUCA
B10: chr12:60073987:60073988:-_ENSMUSG00000020986_ENSMUST00000021375|perfect_dup|motif|central (ssRNA)
RNA: GGGAGUUCUACAGUCCGACGAUCCUGGGUCAGAUCUUGACGCAUAAAAUGGUGACGAUAAUAUGAACUCUCAUCAGGACGGUUGUUAAAAACUUGCAGGAAAGAAGAUCUUCUUAAAUGAAACAUAAACUGUGGAUAAAGGGACAACAGAGGAUUGAGCAUCA
B11: chr2:100011259:100011260:+_ENSG00000158417_ENST00000289371|hu_hu|motif|central (ssRNA)
RNA: GGGAGUUCUACAGUCCGACGAUCGUAGUCUUGUCUAUAUUUUGUAAAGGCAUCAAAUAAAUGAUAAAUAAUUUCUGCACGGAAAAUUCUAACUCCUAAACUAUCAGCCAUUUCUUGUGCAUCUCGUUCAAUUCUCACAUCGAACAACAGAGGAUUGAGCAUCA
B12: chr2:73479818:73479819:+_ENSG00000135624_ENST00000258091|hu_hu|FALSE|FALSE (ssRNA)
RNA: GGGAGUUCUACAGUCCGACGAUCGGCUGCUGUCAGCGCAUUGAUCCGCACCAUAGCUGGCUCCCACACGAAAGCUUCAAAGUUGUCAGCAAUGUCCUCGUUGUUGAUGUCUACUCCAUACCAUGUACCCCCCUGGGCAUGCCGCAACAGAGGAUUGAGCAUCA
B13: chr7:65705844:65705845:+_ENSG00000169902_ENST00000304842|hu_mus|hu_hu_hu_mus_False|28_78 (ssRNA)
RNA: GGGAGUUCUACAGUCCGACGAUCAAACGGAUCUUUGUUACAUAAAUAAGGUGCCGGCUCCCCAUGCUUAACAAUGACCUCCAGAAGGAAGGCUUGCAUGGCAGAAUCCAGCACUUCAUCUGUGACACCCGCCUCAUCCAAGCGCAACAGAGGAUUGAGCAUCA
B14: chr19:8913615:8913616:-_ENSMUSG00000071658_ENSMUST00000096259|mus_hu|mus_mus_mus_hu_False|78_108 (ssRNA)
RNA: GGGAGUUCUACAGUCCGACGAUCAGGGGGGCACCAACUUCUGCCUGAAAUGGGUGCCCCACCCUGCAGGGAGUUGCAGCUGAAAGUAUCUGAUGCAGAAGCAGUGACUAUACGAAAGGAGGCCCCUGGGGAGGGCCAGGCCAGCAACAGAGGAUUGAGCAUCA

Biological target: T1, UNK ZnF1-3
Experiment: nsRBNS (natural sequence RNA bind-n-seq); RBNS binding buffer (assumed for nsRBNS): 25 mM Tris pH 7.5, 150 mM KCl, 3 mM MgCl2, 0.01% Triton X-100, 500 ug/ml BSA, 20 U/ml SUPERase-In, 4 C; UNK is unkempt and MSI1 is Musashi-1; names of the RNAs are library labels; protein concentration not given here; high values mean tight binding

| Binder | binding signal [enrichment R] |
| --- | --- |
| B1 | 0.784 |
| B2 | 0.817 |
| B3 | 1.5 |
| B4 | 0.901 |
| B5 | 1.36 |
| B6 | 1.04 |
| B7 | 0.647 |
| B8 | 0.808 |
| B9 | 0.662 |
| B10 | 1.44 |
| B11 | 1.66 |
| B12 | 1.04 |
| B13 | 0.232 |
| B14 | 1.15 |
